Experimental data from the supplement of paper PMC9446081.
The campaign covered roughly 39,000 compounds. About 220 (0.56%) showed activity. Some of the results follow.

The compounds below were run on Escherichia coli K-12 BW25113 (assay: relative growth (OD600 normalised to plate interquartile mean) (fraction); higher = less growth inhibition, active = 0.2 or less). Conditions: 50 µM; LB; incubation time: overnight (16-24 h).
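Further: static incubation at 37 °C against the wild-type strain, values averaged over two biological replicates.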

Structure (SMILES) | relative growth
OC[C@@H]1CC[C@@H]2O[C@H](CCc3ccc(C#CCc4ccccc4)cc3)[C@@H](n3cc(-c4ccccc4)nn3)C[C@@H]2O1 | inactive: 1.01
O=C(O)C=CC=Cc1ccc2c(c1)OCO2 | inactive: 0.963
N/N=C(\C(=O)O)c1ccccc1N | inactive: 1.02
C[C@@H]1CN([C@@H](C)CO)C(=O)c2cc(NC(=O)Cn3cnnn3)ccc2O[C@@H]1CN(C)CC1CC1 | inactive: 1.05
C[C@@H]1CN([C@H](C)CO)C(=O)c2cc(NS(=O)(=O)c3cccs3)ccc2O[C@@H]1CN(C)Cc1ccc(Cl)c(Cl)c1 | inactive: 0.99
COc1ccc(S(=O)(=O)N(C)C[C@H]2OCCCC[C@@H](C)Oc3ccc(NC(=O)Nc4cccc5ccccc45)cc3C(=O)N([C@H](C)CO)C[C@@H]2C)cc1 | inactive: 0.992
C[C@@H]1CN([C@H](C)CO)C(=O)c2c(c3ccccc3n2C)-c2ccccc2CO[C@H]1CN(C)Cc1ccc(Oc2ccccc2)cc1 | inactive: 1.02
CN(C)c1cc[n+](C(=O)N2CCOCC2)cc1 | inactive: 0.979
Cc1noc(C)c1NC(=O)N(C)C[C@H]1Oc2c(NC(=O)NC(C)C)cccc2C(=O)N([C@@H](C)CO)C[C@H]1C | inactive: 1.03
COCC(=O)N1C[C@@H](C)[C@@H](OC)CN(C)C(=O)c2ccc(NC(=O)c3ccc(OC)cc3)cc2OC[C@@H]1C | inactive: 0.992
NNC(=O)c1ccc(/C=N\O)nc1 | inactive: 0.975
CO[C@H]1CN(C)C(=O)c2cc(NC(=O)C3CC3)ccc2OC[C@H](C)N(C(=O)CN2CCOCC2)C[C@H]1C | inactive: 0.988
O=c1cc(CO)occ1O | inactive: 1.02
CO[C@H]1CN(C)C(=O)c2cc(NS(=O)(=O)CC(F)(F)F)ccc2OC[C@H](C)N(Cc2ccccn2)C[C@@H]1C | inactive: 1.02
CO[C@@H]1CN(C)C(=O)c2cc(NC(=O)C3CC3)ccc2OC[C@H](C)N(C(=O)CN2CCOCC2)C[C@H]1C | inactive: 0.979
COc1ccc(S(=O)(=O)N(C)C[C@@H]2Oc3cc(C#CC4CC4)ccc3S(=O)(=O)N([C@H](C)CO)C[C@H]2C)cc1 | inactive: 1.02
C[C@@H]1CCCCO[C@H](CN(C)S(=O)(=O)c2ccccc2)[C@@H](C)CN([C@@H](C)CO)C(=O)c2cc(NC(=O)Nc3ccccc3)ccc2O1 | inactive: 1.03
N=C(C[n+]1ccccc1)NO | inactive: 1.05
CN1C(=O)c2cc(NC(=O)C3CCC3)ccc2OC[C@@H]2O[C@H](CC(=O)NCCc3ccncc3)CC[C@H]21 | inactive: 1.05
C[C@@H]1CN([C@H](C)CO)C(=O)c2c(c3ccccc3n2C)-c2ccccc2CO[C@@H]1CN(C)C(=O)Nc1ccc2c(c1)OCO2 | inactive: 0.991

Structure (SMILES) | relative growth
C[C@@H]1CN([C@@H](C)CO)C(=O)c2cccc(NC(=O)C3CC3)c2O[C@H]1CN(C)S(=O)(=O)c1ccc(Cl)cc1 | inactive: 0.979
Cc1noc(C)c1NC(=O)N(C)C[C@H]1Oc2c(NS(=O)(=O)c3ccccc3)cccc2C(=O)N([C@@H](C)CO)C[C@@H]1C | inactive: 1.01
C[C@@H]1CCCCO[C@H](CN(C)Cc2ccc(Cl)c(Cl)c2)[C@@H](C)CN([C@@H](C)CO)C(=O)c2cc(NC(=O)Nc3cccc4ccccc34)ccc2O1 | inactive: 1.06
COc1ccc(C(=O)Nc2cccc(CN3C(=O)[C@]4(O[C@H](CC(=O)N5CCC[C@H]5CO)[C@@H]([Si](C)(C)c5ccc(OC)cc5)[C@@H]4C)c4ccccc43)c2)cc1 | inactive: 1.03
C[C@@H]1CN([C@H](C)CO)C(=O)c2cc(NS(=O)(=O)c3ccccc3)ccc2O[C@@H](C)CCCCO[C@H]1CN(C)Cc1ccc(C(F)(F)F)cc1 | inactive: 1.07
C[C@@H]1CCCCO[C@@H](CN(C)CC2CCCCC2)[C@H](C)CN([C@@H](C)CO)C(=O)c2cc(NS(=O)(=O)c3ccc(Cl)cc3)ccc2O1 | inactive: 0.979
O=C(C[C@H]1CC[C@@H]2[C@H](COC[C@H](O)CN2C(=O)Nc2cccc(Cl)c2)O1)NCCCN1CCOCC1 | inactive: 1.01
NCc1ccccc1-c1ccco1 | inactive: 0.983
C[C@@H]1CN([C@H](C)CO)C(=O)Cc2cc(NC(=O)CCC(F)(F)F)ccc2O[C@H]1CN(C)S(=O)(=O)c1ccccc1 | inactive: 1.01
COc1cccc(-c2ccc3c(c2)O[C@H](CN(C)Cc2cncnc2)[C@H](C)CN([C@@H](C)CO)S3(=O)=O)c1 | inactive: 0.977
Nc1ccn([C@H]2C[C@H](O)[C@@H](CO)O2)c(=O)n1 | inactive: 0.996
C[C@@H]1CN([C@@H](C)CO)S(=O)(=O)c2ccc(C#Cc3ccc(F)cc3)cc2O[C@@H]1CN(C)C(=O)CN(C)C | inactive: 1.02
Cn1nnnc1S[C@H]1CCNC1 | inactive: 0.996
C[C@H](CO)N1C[C@H](C)[C@H](CN(C)S(C)(=O)=O)Oc2ccc(NS(=O)(=O)c3cccs3)cc2C1=O | inactive: 0.996
CC(C)NC(=O)Nc1ccc2c(c1)C(=O)N([C@@H](C)CO)C[C@H](C)[C@@H](CN(C)S(=O)(=O)c1cn(C)cn1)OCCCC[C@H](C)O2 | inactive: 0.997
NCCCCCC(O)(P(=O)(O)O)P(=O)(O)O | inactive: 0.974
CCS(=O)(=O)Nc1ccc2c(c1)C(=O)N(C)[C@H]1CC[C@@H](CC(=O)NCc3ccccc3F)O[C@@H]1CO2 | inactive: 0.966
COc1ccc2c3c(n(c2c1)C)[C@@H](CO)N(CC1CCCC1)C[C@]13CCN(CC1)C(=O)Nc1ccccc1 | inactive: 0.984
C=CCOC(=O)[C@H]1[C@@H]2C(=O)O[C@@H](c3ccccc3)[C@@H](c3ccccc3)N2[C@@H](c2ccc(OCCOC(=O)[C@@H]3C[C@@H]4C(=O)N[C@@H](CC(C)C)C(=O)N4[C@@H]3c3ccc(O)cc3)cc2)[C@]12C(=O)Nc1ccc(I)cc12 | inactive: 1.05
COc1ccc(NC(=O)N(C)C[C@@H]2OCCCC[C@@H](C)Oc3ccc(NC(=O)NC4CCCCC4)cc3C(=O)N([C@H](C)CO)C[C@H]2C)cc1 | inactive: 0.945
